Assay results from the supplement of paper PMC12067230.
The data scatter; read single values as rough.

B1: library; a variant is named by its letters at X, in order (parent)
chain: EASNCFAIRHFENKFAVETLICXXXXXXXXX

Variants of: B1
Assay: amyloid nucleation score relative to library mode (yeast Sup35 reporter selection) (log enrichment difference); higher = more amyloid nucleation; sequences are the first 22 residues of the Bri2 peptide extended by up to 12 random residues
Settings: random library (experiment): 1;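 active = nucleation score significantly above 0 at FDR 0.05; inactive = not significantly above 0 or absent from output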
Experimental: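 Random C-terminal extensions of the 22-aa Bri2 peptide by 12 NNK codons; premature stops give shorter extensions. Peptides were fused to the Sup35 nucleation domain in S. cerevisiae [psi-pin-] and selected on -ADE-URA plates for 7 d at 30 °C. The nucleation score is log(output/input), centred to the mode of each of 3 independent libraries (1 input, 3 technical output replicates), with duplicates merged. Sequences absent from the output ('random_non_nuc') were imputed with the library mode value, so they are given as censored (<). Nucleators are scores significantly >0 at FDR 0.05.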
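Note: [psi-pin-] Saccharomyces cerevisiae expressing SupN fusions, induced by 100 µM Cu2SO4, selected 7 d at 30 °C without adenine and uracil, scored by deep sequencing of output versus input.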

Row | Variant | amyloid nucleation score
1 | GVHLSRGNL | inactive
2 | LEPARVQFR | inactive
3 | EVAGVVRLG | 1.54
4 | DVLRVALFV | inactive
5 | DGLGFTAVY | -0.0846
6 | LVKVYPWCM | inactive
7 | RCSWVSERG | -0.171
8 | AIMSQVHRY | 4.65
9 | VTLLEPTPL | inactive
10 | WNGQWYGTR | 5.4
11 | YGPGMSSGW | 5.32
12 | CDERNYSVV | inactive
13 | GEKKTYYWM | -0.0479
14 | FDTTEESPR | 0.848
15 | VVPMELGCR | inactive
16 | NWNECPCNR | 8.88
17 | FCVCYIPNR | 2.18
18 | RYRGNCYVG | inactive
19 | PEVVGHWGE | -0.481
20 | CRLTSRCIN | inactive
21 | CRWGKVSLE | 0.683
22 | GLDGLSLLS | inactive
23 | YTHVSGLCY | inactive
24 | LILWSGRGH | inactive

Row | Variant | amyloid nucleation score
25 | DREVSRVRG | -0.627
26 | FVGMVWVYR | -0.227
27 | PGLNLVSSR | inactive
28 | WTSQVLKYK | inactive
29 | MWRRNFCWP | inactive
30 | RGPFSACKS | inactive
31 | GFVVRNGTI | 7.81
32 | RVKNGCMSS | inactive
33 | VSEHEEVRW | inactive
34 | VQNAVMTVQ | inactive
35 | NASLWAQEQ | 1.26
36 | VCNAYPAVV | 4.62
37 | KGSGGLMFG | -0.372
38 | CHLVVGLAE | 5.92
39 | CVTWLVSAH | 1.38
40 | DHVADWLSC | 5.37
41 | VTCIMFNRC | 4.82
42 | LLSLCYNCF | -0.187
43 | DDSVPFMLY | 1.56
44 | VLCEHRSMI | 2.51
45 | PGMAARRVR | -0.288
46 | EKCGGCRTL | inactive
47 | PLDPFTVRY | inactive
48 | GRYQVRVMW | 3.12

Row | Variant | amyloid nucleation score
49 | AGPVLTTAP | inactive
50 | FTCCGWLVG | 8.39
51 | LFWFGGRMA | 3.89
52 | MPRVRSIVV | 0.498
53 | MCTPVSLWV | 4.52
54 | VDGLVRCDV | -0.0194
55 | TSVSPQMQM | 1.75
56 | GLTMRNPLA | inactive
57 | YGSAHCDKS | 3.52
58 | DEVIGLTCI | inactive
59 | ASCVAVAAT | -0.517
60 | PGYGRRSGE | inactive
61 | HGLGAVVCA | inactive
62 | MGLPLCHVL | 3.26
63 | EDLGCQEMP | inactive
64 | DMDDSEELT | inactive
65 | WYGDYDKKR | inactive
66 | YNKHRYLSG | inactive
67 | VNVIPRVVV | inactive
68 | WLVEDQVAQ | inactive
69 | DSTYPHGNV | inactive
70 | RGEWSKLLC | inactive
71 | HCLTSNACL | 6.39
72 | FVVFSKLVK | inactive

Row | Variant | amyloid nucleation score
73 | LAMYDGSLG | inactive
74 | LCTNGGHKT | 6.66
75 | KESVFRGIE | inactive
76 | GRGQIREEV | inactive
77 | RRGPLGGEG | inactive
78 | VSDGVRGNG | inactive
79 | VGSVSSRVE | inactive
80 | RGQMVPSSL | inactive
81 | LLPWLPFCS | 5.08
82 | GICGRSLLS | 5.5
83 | QSTAQFVSQ | 0.645
84 | VQGSIPLEG | inactive
85 | HTVPRASPG | -0.171
86 | VRRLRVLGE | inactive
87 | WSYRLVTAA | inactive
88 | LSGMSGELP | inactive
89 | ESVRVSGTA | inactive
90 | TGAPQKGLC | inactive
91 | RCFMRICAG | inactive
92 | WVAEGHPFK | inactive
93 | QWMYYVPFL | 0.165
94 | IYMMIRTYA | inactive
95 | RPVVFCSHT | inactive
96 | KCAFMLGSY | inactive

Row | Variant | amyloid nucleation score
97 | VSVVYSRVG | inactive
98 | VSGVSWTLT | inactive
99 | FGFGLMFET | 5.44
100 | DQLEDIIQG | inactive
101 | MRWAGFLVS | inactive
102 | LSYQVYVPF | 2.22
103 | GRKAMTTDS | inactive
104 | YGSRMKLAG | inactive
105 | RRIRLRFSS | inactive
106 | LGTSNTTVG | 4.69
107 | CLGSYAAKA | 6.45
108 | YRIEALSGG | inactive
109 | GNSVSRRDL | 0.703
110 | VLPPHVFLY | 4.95
111 | FSQVPPGLC | 3.05
112 | WLGIRRRMS | inactive
113 | KVRYQRFLV | inactive
114 | WCLSTQFVV | inactive
115 | NWHRERPWR | 4.32
116 | RRVAVYRLE | inactive
117 | KSMACTAGR | 0.92
118 | GWYSVSHEG | 2.44
119 | LCPRAREHG | 8.6
120 | MGHASPSPS | inactive

Same assay, conditions: random library (experiment): 2

Row | Variant | amyloid nucleation score
121 | YTDCCCDNG | 7.75
122 | CLRNIRGNW | 1.32
123 | TVYCRFHST | 2.35
124 | LLSFCRMEC | inactive
125 | KVSINISVV | 6.04
126 | IVILWVVAR | 5.7
127 | CILVIDRPF | 4.76
128 | YTASLMSIT | inactive
129 | RLMLHLNVR | inactive
130 | DYYGRFETS | inactive
131 | AYDIICKTC | inactive
132 | CVSQGSTFG | 8.4
133 | DDSRNRLCT | inactive
134 | VNVRYKYLA | inactive
